Measured values published in ChEMBL document CHEMBL1201862, “PubChem BioAssay data set” (2004).
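Grown in 96-well plates, cells were treated for 48 hours with each compound at five concentrations. Insufficient inhibition: endpoint recorded as highest concentration tested. GI50 = concentration required for 50% inhibition of growth.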 Activity calls are given as the source filed them. Rule as the data show it: active = GI50 up to about 1.1 µM and inactive = higher. Peptide text beside a SMILES is read from it. * marks the point of attachment. Cbz = O=C(OCc1ccccc1)*; Bn = c1ccc(C*)cc1

system: NCI-H322M; experiment: inhibition of tumour cell growth, NCI panel, 48 h

Structure (SMILES) | GI50
CCOC(=O)c1cnc2oc3ccc(O)cc3c2c1-c1ccccc1 | inactive: > 100 µM
CCN(CC)CCC(=O)c1ccc(Oc2ccc(C)cc2)cc1 | inactive: 43.7 µM
O=C(O)/C(Cl)=C(Cl)/C=N/NC(=O)c1cc2ccccc2cc1O | inactive: 25.8 µM
Cc1cc(O)c2c(c1)C(=O)c1cc(O)cc(O)c1C2=O [EMODIN] | inactive: 25.3 µM
COc1cc2c(cc1OCCCC(=O)Nc1cc(C(=O)NCCCN(C)C)n(C)n1)N=CC1CCCN1C2=O (stereo not given) | inactive: > 40.4 µM
CCOC(=O)/C(C#N)=C(O)/C(=C\c1ccc(Br)cc1)NC(=O)c1ccccc1 | inactive: > 100 µM
CC1=CC[C@@]2(C)CC[C@](O)(C(C)C)C2C(OC(=O)c2ccccc2)C1 (stereo not given in full) | inactive: 18.5 µM
C=C(C(=O)OC1C(CO)OC(OCC2CC[C@@H]3C[C@]4(OC(=O)C3=C)C(C)=CC(=O)C24)C(O)C1O)[C@@H]1CCC(CO)C2C(=O)C=C(C)[C@@]2(O)C1 (stereo not given in full) | inactive: 7.28 µM
N#Cc1c(N)sc2c1-c1ccccc1OC2 | inactive: 32.1 µM
COc1ccc(P2(=S)OC(C)(C)C(C)(C)O2)cc1 | inactive: > 100 µM
Cn1c(Nc2ccccc2)c(/C=N\c2ccccc2)c(=O)n(C)c1=O | inactive: > 100 µM
Cc1c(C(=N)N)oc2ccccc12 | inactive: > 100 µM
COC(=O)/C(=N\Nc1nnc(C)n1N)C(C#N)c1ccccc1 (stereo not given) | inactive: > 100 µM
CC1CCC(O)(C(C)(C(=O)O)c2ccccc2)CC1 (stereo not given) | inactive: > 100 µM
NC(=O)NCCCC(NC(=O)OCCCCCn1ccc(=O)[nH]c1=O)C(=O)O (stereo not given) | inactive: > 100 µM
COc1ccc2c(c1)C=C([N+](=O)[O-])C(C1OC(C)(C)OC1C1COC(C)(C)O1)O2 (stereo not given) | inactive: 14.2 µM
CC(=O)OC1CCn2nnc(CO[Si](C)(C)C(C)(C)C)c21 (stereo not given) | inactive: > 100 µM
Cc1ccc(-c2cc(-c3ccc(Cl)cc3)nc(/N=C3\C(=O)N(CN(C)C)c4ccccc43)n2)cc1 | inactive: 96.8 µM
CSc1ncnc2c1ncn2CCC#N | inactive: > 100 µM
Cc1ccccc1N(CCC#N)C1=NN(C(=O)CC(=O)Nc2ccccc2)C(c2ccccc2)C1 (stereo not given) | inactive: > 100 µM
C=Cc1c(C)c(OC)cc2c1Oc1ccc(OC)c(C)c1CC2 | inactive: > 100 µM
c1ccc2c(c1)SCCCSCCSCCCS2 | inactive: > 100 µM
CC(/C=C/NNC1=NN=C(c2ccccc2)C(c2ccccc2)N1)Sc1ccccc1N (stereo not given) | inactive: 11.1 µM
CCOC(=O)c1sc(Nc2cc(Cl)ccc2Cl)nc1C | inactive: > 100 µM

Structure (SMILES) | GI50
O=C(O)CNS(=O)(=O)c1ccc(NC(=O)c2ccc(F)cc2)cc1 | inactive: > 100 µM
C=C(CCC/C(C)=C/C=C/[C@]1(C)CCCc2ccoc21)CC(=O)O | inactive: > 100 µM
Cc1ccc2c(ccc(/C=C/c3ccc(O)c4ncccc34)[n+]2C)c1 | inactive: 10.2 µM
O=C1CC(c2ccccc2Cl)C2(C(=O)NC(=O)NC2=O)C(c2ccccc2Cl)C1 (stereo not given) | inactive: 43.9 µM
Cc1ccc(CN2CCN(Cc3ccc(C)o3)C(C)C2)o1 (stereo not given) | inactive: > 100 µM
CCOC(=O)/C=C(\C(=O)OCC)n1ccc(N)nc1=O | inactive: > 100 µM
COc1cc(C2SCC(=O)N2NC(=O)c2ccc(NC(C)=O)cc2)cc(OC)c1OC (stereo not given) | inactive: > 100 µM
C/N=C(\N)N/N=C(\C)c1ccc2oc3ccc(/C(C)=N/N/C(N)=N/C)cc3c2c1 | inactive: 2.42 µM
CC1=CC(=O)NP(=O)(C23CC4CC(CC(C4)C2)C3)N1 (stereo not given) | inactive: > 100 µM
[N-]=[N+]=CC(=O)OCCCCl | inactive: > 100 µM
Clc1ccc(CCN2CCOCC2)c(Cl)c1 | inactive: > 100 µM
CC1=C(C(=O)CC(=O)C(=O)Nc2cc(C)ccc2C)Sc2ccccc2N1 | inactive: > 100 µM
C[C@H](O)C1CC(Cn2nnc3c(N)ncnc32)C1(C)C (stereo not given in full) | inactive: > 100 µM
CCN(CC)c1cc2c3c(c1)CCCN3CCC2 | inactive: > 10 µM
Cc1ccc(OCC2OC(n3cnc4c(Cl)nc(Cl)nc43)CC2Oc2ccc(C)cc2)cc1 (stereo not given) | inactive: 2.85 µM
CN1C(=O)c2ccccc2NC(=O)C12O[C@@H]2c1ccccc1 (stereo not given in full) | inactive: > 100 µM
C=C1C(=O)OC2CC(C)C3CC(O)OC(OCC)C3(C)CC12 (stereo not given) | inactive: 25.4 µM
CC(=O)OC1CCCn2c1nc1c2C(=O)C(C)=C(N2CC2)C1=O (stereo not given) | active: 0.53 µM
COc1ccc(NC(=O)CC(=O)N2N=C(N3c4ccccc4Sc4ccccc43)CC2c2ccccc2)cc1 (stereo not given) | inactive: > 100 µM
CC(C)(Sc1cc(C(C)(C)C)c(O)c(C(C)(C)C)c1)Sc1cc(C(C)(C)C)c(O)c(C(C)(C)C)c1 [PROBUCOL] | inactive: > 100 µM
CC(=O)c1ccc2c3c1O[C@H]1c4[nH]c5ccccc5c4C[C@@]4(O)[C@@H](C2)N(CC2CC2)CC[C@]314 | active: 0.0542 µM
C=CCC1(CN(C)C)CC/C(=C\c2cc(OC)c(OC)c(OC)c2)C1=O (stereo not given) | inactive: 32.2 µM
CCCCCCCCCC(=O)NCCc1c[nH]c2ccc(OC)cc12 | inactive: 18.4 µM
CC1(C)OC(=C(C#N)C#N)C(C#N)=C1/C=C/c1ccncc1 | inactive: 4.42 µM

Structure (SMILES) | GI50
N#CCCCCCOCCOCCOCCOCCOCCCCCC#N | inactive: > 100 µM
C#CCn1c(=O)ccn(/C(=C\C(=O)OCC)C(=O)OCC)c1=O | inactive: 19 µM
COC(CNC(=O)CNC(=O)c1ccc(C(F)(F)F)cc1)OC | inactive: > 100 µM
CN1C(=O)CCC1(O)C1C=CC=CC1 (stereo not given) | inactive: > 100 µM
On1c(-c2ccccc2)nc2ccccc2c1=S | inactive: 5.27 µM
Cc1ccc(Nc2n[nH]c(NS(=O)(=O)c3cc(C(=O)Nc4ccc(Cl)cc4)c(Cl)cc3S)n2)cc1 | inactive: 88.5 µM
Cn1c(=O)c2nc(CCCCc3nc4c(=O)n(C)c(=S)n(C)c4[nH]3)[nH]c2n(C)c1=S | inactive: > 100 µM
COc1ccc(C(C)c2cc3c(cc2OC)OCO3)cc1 (stereo not given) | active: 0.499 µM
C/C(=N\Nc1nc2ccccc2s1)c1ccncn1 | active: 1.09 µM
CCOC(=O)c1cc(C(=O)c2ccccc2)n2nc(-c3ccc(Cl)cc3)ccc12 | inactive: 19.9 µM
OC12CCCCCC1(N1CCOCC1)c1ccccc12 (stereo not given) | inactive: > 100 µM
CC1(O)CC23CC(O)C4(O)C(CC(O)C4(C)C)C(C)(O)C2CCC1C3O (stereo not given) | inactive: > 100 µM
O=C1c2ccccc2C(=O)c2nc3ccc(Cl)cc3cc21 | inactive: > 100 µM
O=C1c2ccccc2S(=O)(=O)c2ccccc21 | inactive: > 100 µM
CN(C)CC1CCC(CN(C)C)C(=O)C1=O (stereo not given) | inactive: 20 µM
CC1(Cc2ccccc2)NC(=S)NC1=O (stereo not given) | inactive: > 100 µM
O=c1[nH]c2ccc(CC(=S)N3CCCCC3)cc2s1 | inactive: > 100 µM
N#CC(C#N)=C1NC(=O)C(c2ccccc2)C(=O)N1 (stereo not given) | inactive: > 100 µM
CC(C)(C)CC(C)(C)N/C(N)=N/O | inactive: > 100 µM
NCCCCNCCCNC(=O)CNC(=O)CC(O)C(N)CCCC(NC(=O)C(CN)NC(=O)C(O)CNC(=O)CC(N)c1ccc(O)cc1)C(=O)O (stereo not given) | inactive: 4.2 µM
Cc1cc(O)nc(/N=C(\N)Nc2ccc(Cl)cc2)n1 | inactive: > 100 µM
CC(=O)Nc1ccc(C(=O)N2N=C(C)/C(=C/c3ccccc3O)C2=O)cc1 | inactive: 37.5 µM
N#Cc1c(-c2ccc(Cl)cc2)c(C#N)c(=O)n(NS(=O)(=O)c2ccccc2)c1S | inactive: > 100 µM
CC(NC(=O)c1ccc(OP(=O)(OCc2ccc([N+](=O)[O-])o2)N(C)CCCCCl)cc1)c1ccc(OCC2CCCCC2)c(C(N)=O)c1 (stereo not given) | inactive: 12.3 µM

Structure (SMILES) | GI50
O=c1[nH]c2c(nc1NC13CC4CC(CC(C4)C1)C3)c(=O)oc1ccccc12 | inactive: 92.5 µM
C/C(=N/NC(=S)N(Cc1ccccn1)Cc1ccccn1)c1cnccn1 | active: 0.258 µM
CCNc1nc(N)c(C(=O)c2ccc(Cl)cc2)s1 | inactive: 28.6 µM
COc1ccc(C2C(Cl)C(=O)N2NC(=O)c2ccccc2O)cc1 (stereo not given) | inactive: > 100 µM
Cc1nc(C(N)=S)sc1C(=O)C/C(=N/N)C(=O)Nc1cccc(Cl)c1C | inactive: 97.7 µM
Cc1cc(C)n(C2OC(CO)C(O)C(O)C2O)c(=S)c1C#N (stereo not given) | inactive: > 100 µM
CCOC1SC(SC)=NN1C(=O)C(OC(C)=O)C(OC(C)=O)C(OC(C)=O)C(OC(C)=O)C(=O)N1N=C(SC)SC1OCC (stereo not given) | inactive: > 100 µM
CO/C(=N\N=Cc1ccccc1)c1ccncc1 | inactive: > 100 µM
OC(c1ccccc1)C1CC2C=CC1C2 (stereo not given) | inactive: > 100 µM
O=C(O)CCCN/C(=C1\C(=O)C(=O)N(c2ccccc2)C1=O)c1ccccc1 | inactive: > 100 µM
CCn1c2ccccc2c2cc(NC(=O)c3c(C)[nH]c(=O)[nH]c3=S)ccc21 | inactive: 56.1 µM
S=C(NCc1ccccc1)c1nc[nH]c1C(=S)NCc1ccccc1 | inactive: 6.87 µM
COc1cc(C2c3cc(O)c(OC)cc3C3OCC2C3CO)ccc1O (stereo not given) | inactive: > 100 µM
COc1cc(C)c(O)c(C(=O)O)c1 | inactive: > 100 µM
CCCCCCCCCC[C@@H](O)[C@@H]1CC[C@@H]([C@@H]2CC[C@@H]([C@@H](O)CCCCCCCCCCC(O)CC3=CC(C)OC3=O)O2)O1 (stereo not given in full) | inactive: 7.33 µM
O=C(CN1CCOCC1)c1ccc2c(c1)oc(=O)n2CCN1CCCCC1 | inactive: > 100 µM
CC12c3c4cc(Br)cc3Oc3cc(Br)cc(c31)Oc1cc(Br)cc(c12)O4 | inactive: > 100 µM
Cn1cnc(N2CCCC2)c(C#N)c1=O | inactive: > 100 µM
CNc1nc(=O)c(C#N)c(-c2ccc(C)cc2)s1 | inactive: > 100 µM
CCOCC(=O)N[C@H]1CCc2cc(OC)c(OC)c(OC)c2-c2ccc(OC)c(=O)cc21 | active: 0.0209 µM
COC(=O)C(Cc1ccc(O)cc1)NC(=O)C(COCc1ccccc1)NC(=O)OCc1ccccc1 (stereo not given) (Cbz-Ser(Bn)-Tyr-OMe; configuration not given here) | inactive: 20 µM
Cc1nc2c(n1-c1ccc(Br)cc1)C(=O)c1ccccc1C2=O | inactive: 17.4 µM
Nc1nccc2c1ncn2C1C=C(CO)C(O)C1O (stereo not given) | inactive: 44.2 µM
